In article PMC3805550, “A Molecular Evolution Approach to Study the Roles of Tropomyosin in Fission Yeast” (PLoS ONE, 2013):

Target: F-actin from chicken pectoral (skeletal) muscle (chicken, UniProt P68139)
Assay: co-sedimentation; 5 uM F-actin with 0.1-6 uM AS-Cdc8p, 20 mM MOPS pH 7.0, 150 mM NaCl, 2 mM MgCl2, 20 C, 60,000 rpm 30 min; pellets and supernatants on SDS-PAGE, densitometry; Hill equation fit, apparent constant (Kapp)
Details: both partners purified

Ka: 2.6e+06 M⁻¹
B1: AS-Cdc8p D16A.K30A (natural protein)
chain: not shown
notes: AlaSer extension; primer introduces Met-Ala-Ser at the 5' end, the Met is cleaved after expression in E. coli; Cdc8p, tropomyosin of Schizosaccharomyces pombe, 161 residues; subcloned with primers at the 5' end and the 3' end of cdc8; measured mass 19020 (expected 19021); residue numbers count on Cdc8p without the AS extension; also called AS-16.30; AS-Cdc8p-16.30; source: E. coli BL21(DE3) …
